The campaign covered roughly 45,000 compounds. About 65 (0.1%) were called active. Calls come from the whole dose curve; as a rule, active = well fitted activation curve with a large enough effect; inconclusive = small, poorly fitted or top-dose-only effect; inactive = no such curve, though single readings can be large or run the other way. The list shows a part of the results.
These compounds were tested against Galactocerebrosidase (Homo sapiens) (UniProt P54803) (assay: A Novel Cell-Based Assay to Identify Small Molecules for B -Galactocerebrosidase). Conditions: 145M-Twi-hGALC-G270D cells (Twitcher mouse brain line with human GALC G270D), HMU-beta-Gal fluorescence, 48 h; series mostly up to 57.5 µM; activation: at the top concentration.
In short: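 Fluorogenic HMU-b-Gal hydrolysis (0.1 mM final, pH 5.2 citrate-phosphate with 1 mg/mL sodium taurocholate; carbonate stop buffer) measures mutant GALC activity after compound treatment of live 145M-Twi Twitcher brain cells stably carrying human GALC-G270D, with wild-type GALC line alongside; activation sought.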
Note: 0% is about no effect; nearly all actives have a fitted effect of over 65% in size.

Chain of UniProt P54803 (P54803 whole entry, looked up): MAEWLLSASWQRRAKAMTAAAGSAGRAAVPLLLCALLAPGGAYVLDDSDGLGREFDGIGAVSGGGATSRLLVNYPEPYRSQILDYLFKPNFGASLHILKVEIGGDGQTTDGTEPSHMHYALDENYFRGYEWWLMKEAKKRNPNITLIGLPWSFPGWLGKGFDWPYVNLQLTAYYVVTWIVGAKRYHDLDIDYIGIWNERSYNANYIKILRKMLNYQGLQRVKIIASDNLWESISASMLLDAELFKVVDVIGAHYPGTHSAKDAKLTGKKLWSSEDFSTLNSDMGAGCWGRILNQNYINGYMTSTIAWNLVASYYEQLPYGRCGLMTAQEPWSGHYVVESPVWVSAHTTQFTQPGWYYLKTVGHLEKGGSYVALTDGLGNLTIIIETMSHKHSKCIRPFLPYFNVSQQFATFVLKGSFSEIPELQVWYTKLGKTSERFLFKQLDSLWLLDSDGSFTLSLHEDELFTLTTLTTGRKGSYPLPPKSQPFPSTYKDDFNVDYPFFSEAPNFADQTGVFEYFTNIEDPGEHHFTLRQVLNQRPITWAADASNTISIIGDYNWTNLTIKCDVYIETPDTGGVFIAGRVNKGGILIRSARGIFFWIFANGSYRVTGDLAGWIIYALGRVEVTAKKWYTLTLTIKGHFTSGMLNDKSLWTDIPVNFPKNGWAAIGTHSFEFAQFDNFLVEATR

activation, inactive:
COc1ccc(N(Cc2cccs2)C(=O)COc2cccc(C)c2C)cc1 -9.74%, CSc1ccc(NC(=O)C2CCN(c3ncccn3)CC2)cc1 -17.2%, CCN1CCN(c2ncc3c(n2)CCN(CC(C)C)C3)CC1 -8.74%, COC(=O)CC1Oc2ccc(F)cc2-n2cc(-c3ccc(C)cc3)nc21 (stereo not given) 15.5%, COc1cc(NC(=O)CCn2c(=O)oc3ccccc32)cc(OC)c1OC -22.2%, COc1ccc(-n2cc(-c3ccccc3)nc2SCC(=O)Nc2ccccc2C)cc1 -10.5%, CCOC(=O)N1CCc2c(sc(NCc3cccc(F)c3)c2C(=O)Nc2ccc(OC)cc2)C1 -24.1%, Cc1ccc(CNc2nc3ccc(Cl)cc3n3nnnc23)cc1 11%, COc1cc(OC)c(NS(=O)(=O)c2c(C(=O)N3CCCCCC3)c(C)n(C)c2C)cc1Cl -13.6%, Cc1cc(-c2ccc(C)c(S(=O)(=O)Nc3ccccn3)c2)on1 -9.34%, COc1ccc(Br)cc1CNC(=O)c1ccc2nc(C(C)C)oc2c1 -11.3%, CCOc1ccc(-n2ccnc2SCC(=O)Nc2cccc3ccccc23)cc1 -6.24%, Cc1cccc(CC(=O)N2CC(=O)Nc3ccc(C)cc3C2c2ccc(F)cc2)c1 (stereo not given) -11.8%, CCCN(CCC)C(=O)CSc1c2c(nc3ccc(Cl)cc13)CCCC2 -8.73%, Cc1ccc(NC(=O)CN2C(=O)C(c3ccc(C(C)(C)C)cc3)=NC2(C)C)cc1 -25.2%, CC(=O)[C@]1(O)Cc2c(O)c3c(c(O)c2[C@@H](O[C@H]2C[C@H](N)[C@H](O)[C@H](C)O2)C1)C(=O)c1ccccc1C3=O -11.3%, CN1C(CSCC(F)(F)F)Nc2cc(Cl)c(S(N)(=O)=O)cc2S1(=O)=O (stereo not given) -10.9%, O=[N+]([O-])c1cc(-c2nc(-c3ccccc3)no2)ccc1NCc1cccnc1 -35.7%, COc1ccccc1CNC(=O)CCCCn1c(=O)c2ccccc2n(CC(=O)Nc2c(C)cc(C)cc2C)c1=O -6.57%, COc1ccccc1Cc1nc2ccccc2nc1SCC(=O)Nc1ccc2c(c1)OCO2 -9.98%, CCOc1ccccc1CNC(=O)CCC(=O)N1CCSc2ccccc21 6.34%, COc1ccc(OC)c(NC(=O)Cn2c(=O)n(Cc3ccco3)c(=O)c3cc(OC)c(OC)cc32)c1 -11.5%, Cc1ccc(C)c(NC(=O)C(Cc2ccccc2)n2cccc2)c1 (stereo not given) -8.13%, Cc1ccc(C(=O)Nc2ccc(-c3nc4ccccc4o3)cc2)cc1Cl -16.7%, Brc1ccc(Nc2c3c(nc4nncn24)CCC3)cc1 -8.64%, Cc1cc(C)cc(-n2c(SCC(=O)Nc3cccc(F)c3)nc3c([nH]c4ccccc43)c2=O)c1 -4.15%, COc1ccc2c(c1)c1c(c(=O)n(Cc3ccccc3)c(=O)n1Cc1ccccc1Cl)n2C -10.4%, COc1ccc(OCC(=O)Nc2c(C(=O)N3CCN(c4ccccc4)CC3)oc3ccccc23)cc1 -25.4%, CCc1ccc(NC(=O)C2=C(C)C(=O)OC23CCCCC3)cc1 -16.2%, Cc1ccc(NC(=O)C2CCC(CNS(=O)(=O)c3ccc4c(c3)CCCC(=O)N4)CC2)cc1F (stereo not given) 1.65%, COCCNc1nc2c(c(=O)n(Cc3cccc(Cl)c3)c(=O)n2C)n1C 1.25%, CC(=O)c1cccc(NC(=O)Cc2ccc(NC(=O)N3CCCCc4ccccc43)cc2)c1 -9.82%, COc1ccc(S(=O)(=O)N(CC(=O)NCCSc2ccccc2)c2ccc(C)cc2)cc1 -20%, CCCCNc1oc(-c2ccc(COc3ccccc3C)o2)nc1C#N -9%, CCOC(=O)c1cc(-c2ccccc2)n(CCC(=O)NCCc2cccc(C)c2)c1C -9.22%, COc1ccc(S(=O)(=O)NCCc2sc3nc(-c4ccc(C)cc4)nn3c2C)cc1C -12.6%, COC(=O)c1ccc(NC(=O)C(=O)NCC(c2cccnc2)N2CCN(c3ccccc3)CC2)cc1 (stereo not given) 3.76%, CCCCN1CCCc2cc(CN(CCCN3CCOCC3)C(=O)Nc3ccc(CC)cc3)ccc21 -20.3%, CCOC(=O)c1c(-c2ccc(OC)c(OC)c2)csc1NC(=O)c1ccc(C)cc1 -15.9%, O=C(NCc1ccc(F)cc1)c1cc2cccc3c2n1CCS3 -8.39%, O=C(O)c1cccc(NC(=O)c2cc3cc(Br)cc(Br)c3oc2=O)c1 -3.23%, COc1cc2c(cc1OC)C(COc1ccc3c(C)cc(=O)oc3c1)N(C(=O)Cc1ccccc1)CC2 (stereo not given) -5.53%, COC(=O)c1cc2sccc2n1CC(=O)Nc1ccc(C)cc1C -27.6%, Cc1ccccc1NC(=O)c1nc(S(C)(=O)=O)ncc1N(Cc1ccco1)Cc1sccc1C -11.4%, Cc1ccccc1OCC(=O)Nc1ccc(C(=O)OCc2cc(=O)n3ccsc3n2)cc1 -15.6%, Cc1ccc(-c2nc(NC(=O)CSc3ccc4ccccc4n3)ns2)cc1 -7.94%, CCN(C(=O)CCc1nc(-c2ccc(C)cc2)no1)c1cccc(Cl)c1 -15.3%, CCOc1ccccc1C(=O)NC1(C(F)(F)F)C(=O)Nc2c1c(=O)[nH]c(=O)n2-c1ccccc1 (stereo not given) -25.1%, COc1cccc(CNC(=O)c2ccc3nc(-c4ccccc4)c(-c4ccccc4)nc3c2)c1OC -8.21%, Cc1cc(C)c(Cn2c3ccccc3c3cnn(CC(=O)NCCC4=CCCCC4)c(=O)c32)c(C)c1 -3.74%, Cc1ccc(S(=O)(=O)c2cn(Cc3ccccc3)c3cc(N4CCCC4)c(F)cc3c2=O)cc1 -7.8%, [O-][n+]1cccc(/C(Cl)=N/OC[C@@H](O)CN2CCCCC2)c1 -11.3%, Cc1ccc(NC(=O)Cn2nnc(C(=O)NCCc3ccccc3)c2N)cc1 -5.93%, O=C(NCc1ccc(Cl)cc1)c1ccc2c(c1)NC(=O)C(CS(=O)(=O)Cc1ccc(F)cc1Cl)N2 (stereo not given) -14.2%, Clc1ccc(-c2csc(-c3nc(-c4ccc(Br)s4)cs3)n2)cc1 -8.65%, COc1ccc(Nc2nnc(-c3ccc(C)c(S(=O)(=O)NCc4nc5ccccc5[nH]4)c3)c3ccccc23)cc1 -13.1%, CCC(C)Sc1oc(-c2ccco2)nc1S(=O)(=O)c1ccc(Cl)cc1 (stereo not given) -8.85%, CCc1ccc(NC(=O)C2CCCN(S(=O)(=O)c3cccc4nsnc34)C2)cc1 (stereo not given) -9.14%, COc1cccc(NC(=O)CCc2nnc3n(Cc4ccccc4Cl)c(=O)c4ccccc4n23)c1 -11.3%, Cc1ccc(NC(=O)c2c(C)nc3sc(C(=O)Nc4ccc(F)cc4)c(N)c3c2-c2ccc(Cl)cc2)c(C)c1 -17.4%
